# In all, about 420,000 compounds went through this assay and about 50,000 (12%) were called active. The inconclusive results got no clear call from the source; some entries with a clear call stand among them for comparison. Calls come from the whole dose curve; as a rule, active = well fitted inhibition curve with a large enough effect; inconclusive = small, poorly fitted or top-dose-only effect; inactive = flat fitted curve, though single readings scatter. No potency is given beside an inconclusive call; the fits are too rough.
# Test: qHTS for Inhibitors of human tyrosyl-DNA phosphodiesterase 1 (TDP1): qHTS in cells in presence of CPT; note: nearly all actives have a fitted effect of over 55% in size
# Conditions: chicken DT40 Tdp1-/-;hTDP1 cells + 20 nM CPT, ATP luminescence, 48 h; activity change, negative = growth inhibition: at 46.2 µM (top of the series)
# How it was run: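 Chicken DT40 Tdp1-/- cells complemented with human TDP1, 400 cells/well, exposed to compounds plus 20 nM camptothecin for at least 48 h at 37 C; viability read as ATP content by CellTiter-Glo luminescence.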
# % is set by controls: 0 for no effect and ±100 for the full control effect; potency is the fitted concentration of half-maximal effect; tags give direction and shape of the fitted curve.
Structure (SMILES),Potency,"activity change, negative = growth inhibition"
Cc1ccc(C(=O)NC2CC(=O)N(c3ccc4c(c3)OCCO4)C2)cc1[N+](=O)[O-] (stereo not given),"inconclusive [inhibitor, partial curve]",
COc1ccc(Cl)cc1NC(=O)CN(C)C(=O)c1cn(-c2ccccc2)nc1-c1cccs1,"inconclusive [inhibitor, single point]",
CC1Cc2ccccc2N1C(=S)Nc1ccc(S(N)(=O)=O)cc1 (stereo not given),"inconclusive [inhibitor, single point]",
CCC(=O)Nc1cccc(-n2nnnc2SCC(=O)N(C(C)C)C(C)C)c1,,inactive: 3.98%
CCOC(=O)C1(Cc2cccc(OC)c2)CCCN(C(=O)CCc2cccnc2)C1 (stereo not given),,inactive: -3.82%
COc1ccc(-c2[nH]c(-c3ccc(OC)c(OC)c3)nc2SCC(=O)Nc2ccccc2)cc1,active: 16.4 µM,
COc1ccc(S(=O)(=O)N2CCSCC2)cc1C(N)=O,"inconclusive [inhibitor, single point]",
COc1ccc(Nc2nc(NCc3ccco3)nc(N)c2[N+](=O)[O-])cc1,,inactive: 11.2%
Cc1ccc(S(=O)(=O)NNC(=O)c2sc(=S)n(C)c2C)cc1,,inactive: -16.3%
Cc1ccc(Nc2c(-c3ccc(N(C)C)cc3)nc3ccccn23)cc1,"inconclusive [inhibitor, single point]",
C=C1CCN([C@@H](CC(C)C)C(=O)NCc2ccc(Cl)cc2)S(=O)(=O)c2ccccc21,"inconclusive [inhibitor, single point]",
Cc1cc[n+](CC2OCc3ccccc3CO2)cc1,"inconclusive [inhibitor, single point]",
Cc1ccc(C)c(S(=O)(=O)N2CCN(c3nc(-c4cccnc4)nc4ccccc34)CC2)c1,active: 8.2 µM,
COC(=O)CSC1=C(C#N)C(c2ccc(C)o2)CC(=O)N1 (stereo not given),active: 14.6 µM,
COc1ncc2nc(-c3cccs3)c(=O)n(CCC#N)c2n1,,inactive: 1.36%
O=C(N/N=C/c1ccccc1OCc1ccccc1)c1cccnc1,"inconclusive [inhibitor, single point]",
CCOc1ccccc1C(=O)N(Cc1ccc(N(C)C)cc1)Cc1ccco1,"inconclusive [inhibitor, single point]",
CC1(C)Oc2ccc3ccc(=O)oc3c2/C(=C/NC2CCCCC2)C1=O,"inconclusive [inhibitor, single point]",

Structure (SMILES),Potency,"activity change, negative = growth inhibition"
COC(=O)[C@@]1(Cc2ccc(F)cc2)[C@H]2C(CC(=O)C(=O)N3CCCC3)C(=O)C[C@H]2CN1C(=O)c1ccccc1 (stereo not given in full),"inconclusive [inhibitor, single point]",
Cc1ccc(C(=O)CC2(O)C(=O)N(Cc3ccccc3Cl)c3ccccc32)o1 (stereo not given),"inconclusive [inhibitor, single point]",
CCC(C(=O)NCc1cccnc1)n1nc(C)c2sc3ccccc3c2c1=O (stereo not given),"inconclusive [inhibitor, single point]",
O=C(Nc1ccc(S(=O)(=O)NCCc2ccccc2)cc1)c1ccco1,,inactive: -27.2%
CCS(=O)(=O)c1ccc(O)c(NC(=O)/C=C/c2ccccc2)c1,,inactive: 0.11%
CC(=O)Oc1ccccc1Cn1c(C)c(C(=O)NCc2cccc(Cl)c2)sc1=O,"inconclusive [inhibitor, single point]",
CCCCn1nc(C(=O)Nc2ccc(-n3cnnn3)cc2)c2ccccc2c1=O,"inconclusive [inhibitor, partial curve]",
C=C(C)COc1ccc(-c2[nH]ncc2Oc2ccccc2OC)c(O)c1,"inconclusive [inhibitor, single point]",
C[C@H](CO)N1C[C@H](C)[C@H](CN(C)Cc2ccccc2)Oc2ccc(NC(=O)Nc3ccc(F)cc3)cc2C1=O,"inconclusive [inhibitor, single point]",
CCSc1nnc(CNC(=O)C23CC4CC(CC(C4)C2)C3)n1C1CCCCC1,active: 23.1 µM,
CSc1ccccc1NC(=O)C1=CC(c2ccc3c(c2)OCO3)=NS(=O)(=O)N1C,"inconclusive [inhibitor, single point]",
CC1=C(C(N)=O)C(c2cccc(C)c2)n2nc(-c3ccc(Cl)cc3)nc2N1 (stereo not given),active: 20.6 µM,
OCC(CO)N[C@H]1C[C@](O)(CO)[C@@H](O)[C@H](O)[C@H]1O,"inconclusive [inhibitor, single point]",
S=C(NC1CC1)SCc1ccco1,"inconclusive [inhibitor, single point]",
COc1ccc2oc(C(=O)OCC(=O)N3CCCCC3C)c(C)c2c1 (stereo not given),"inconclusive [inhibitor, single point]",
COc1ccccc1C(=O)N/N=C(\C)c1cccnc1,,inactive: -1.18%
Cc1ccc(C(=O)O)cc1-c1ccc(/C=C2\SC(=O)N(CC(=O)Nc3ccccc3)C2=O)o1,,inactive: 15.2%

# — PubChem BioAssay AID686979 (National Center for Advancing Translational Sciences (NCATS), 2013)
